Source: PubChem BioAssay AID652104 (National Center for Advancing Translational Sciences (NCATS), 2013)
Screen size: about 410,000 compounds; about 7,200 (1.8%) were called active. Inconclusive results, whose numbers are uncertain, are shown with a selection of clear calls. Calls follow the shape of the dose curve; as a rule, active = well fitted activation curve with a large enough effect; inconclusive = small, poorly fitted or top-dose-only effect, or another doubt; inactive = no such curve, though single readings can be large or run the other way. A potency beside an inconclusive call is a rough fit, not a confirmed value.

Assay: qHTS of TDP-43 Inhibitors; also: nearly all actives have a fitted effect of over 50% in size
Conditions: TDP-43 expressing yeast growth rescue, BacTiter-Glo, 24 h; series mostly up to 46.1 µM
How it was run: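 Cell-based yeast growth screen: TDP-43 expression induced in galactose, inoculum OD600=0.02 after raffinose pregrowth to mid-log. Read-out BacTiter-Glo luminescence at 24 hr, 30 deg C; inhibition of toxicity seen as signal increase.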
Potency is read from the fitted curve at half-maximal effect; tags tell the direction and shape of the fitted curve.

Potency, inactive:
CCCn1c(N)c(N2CCCCC2)c(=O)n(CC(=O)Nc2ccc(C(C)=O)cc2)c1=O
CN=c1sc(C(=O)Nc2ccccc2)c(C)n1C
Cc1ccccc1CNC(=O)C(=O)NCC(c1cccs1)S(=O)(=O)c1ccc(Cl)cc1 (configuration not stated)
O=C(Cn1c(=O)c2cccn2c2ccc(F)cc21)N1CCN(c2ccccc2)CC1
Cc1ccc(-c2cc(C(F)(F)F)c(C#N)c(SCC(=O)O)n2)cc1
CCCn1c(NC(=O)CCNC(=O)c2ccccc2Cl)nc2ccccc21
CCN(CC)S(=O)(=O)c1ccc(NC(=O)c2cccc3c2C(=O)N(CCOC)C3)cc1
C/C(=N\NC(=O)C1CCCN(S(=O)(=O)c2ccccc2)C1)c1cccnc1 (configuration not stated)
Cc1ccc(C2C=C(c3ccccc3)Nc3nc(NS(C)(=O)=O)nn32)cc1 (configuration not stated)
Cc1ccc(-c2noc(-c3ccc(N4CCCC4)c([N+](=O)[O-])c3)n2)cc1
CN(C)/C=C/C(=O)c1ccc(N2CCN(c3ncc(C(F)(F)F)cc3Cl)CC2)cc1
CCOC(=O)c1c(-c2ccc(C)cc2)csc1NC(=O)CCN1CCOCC1
COc1ccccc1-c1ccc2c(c1)C(C)(Cc1ccc(F)c(Cl)c1)C(=O)N2 (configuration not stated)
O=C1C=C(c2ccc(Br)c3ccccc23)C[C@@H](c2ccc3c(c2)OCO3)C1

Potency, inconclusive:
Cc1ccc(Cn2ncc(Cl)c(Cl)c2=O)cc1 14.1 µM [activator, partial curve]
Cc1cccc(NC(=S)NC(=O)CCc2ccccc2)c1 12.6 µM [activator, single point]
CC1=C(C(=O)N2CCOCC2)CC(CC(=O)NCCCCc2ccccc2)C(=O)N1CCCN1CCCC1=O (configuration not stated) 0.355 µM [activator, full curve, poor fit]
Clc1cccc(Cc2c(-c3ccccc3)nc3ccc(Br)cn23)c1 25.1 µM [activator, partial curve]
CCOC(=O)N1CCC(Nc2ncnc3c2cnn3-c2ccc(C)cc2C)CC1 3.16 µM [activator, full curve]
COc1ccccc1NC(=O)CSc1nnc(COc2ccccc2C)o1 14.1 µM [activator, single point]
Nc1c(C(=O)c2ccccc2)sc2snc(SCC(=O)c3ccccc3)c12 25.1 µM [activator, partial curve]
CCOC(=O)c1cc(C)sc1/N=C/C1C(=O)CCCC1=O 7.08 µM [activator, full curve, poor fit]
COC(=O)c1ccccc1S(=O)(=O)N1Cc2cc([N+](=O)[O-])ccc2Oc2ccccc21 35.5 µM [activator, single point]
COc1ccc(CC(=O)Nc2cc(C)on2)cc1 0.316 µM [activator, full curve, poor fit]
COC(=O)c1[nH]c2ccccc2c1NC(=O)CN1CCCc2ccccc21 31.6 µM [activator, single point]
CC(=O)c1cnc(SCCN2C(=O)c3ccccc3C2=O)nc1C 11.2 µM [activator, single point]
Cc1cccc(C(=O)OCC(=O)NCC(C)C)c1O 35.5 µM [activator, partial curve, poor fit]
O=C1c2cccc3c(Nc4ccccc4Cl)c([N+](=O)[O-])cc(c23)C(=O)N1CCO 35.5 µM [activator, single point]
CCc1nccn1S(=O)(=O)c1ccccc1[N+](=O)[O-] 35.5 µM [activator, partial curve, poor fit]
CCCCCCCn1c(NC(=O)CC)nc2ccccc21 35.5 µM [activator, single point]
O=C(COc1ccccc1)Nc1cc(S(=O)(=O)N2CCOCC2)ccc1N1CCCC1 11.2 µM [activator, partial curve, poor fit]
CCc1ccc(S(=O)(=O)Nc2ccccn2)cc1 35.5 µM [activator, partial curve]
Cc1c(Cl)cccc1-n1ncc(C(=O)Nc2ccc(F)cc2F)c1C1CCN(C(=O)OC(C)(C)C)CC1 39.8 µM [activator, partial curve, poor fit]
C/C(=N\Nc1ccc([N+](=O)[O-])cc1)c1cc2ccccc2o1 2.82 µM [activator, full curve]
Cc1cc(Cl)ccc1NS(=O)(=O)c1ccc2c(c1)CC(C)N2C(=O)C1CCC1 (configuration not stated) 22.4 µM [activator, single point]
O=C1CC(c2nc(-c3ccccc3)no2)CN1c1ccc2c(c1)OCCO2 (configuration not stated) 11.2 µM [activator, partial curve]
CCOC(=O)c1nnsc1C(OC)Oc1ccccc1 (configuration not stated) 35.5 µM [activator, single point]
CCOC(=O)[C@]12CCCC=C1N(CCC1=CCCCC1)C(=O)[C@H](CC(=O)NCc1cccs1)C2 35.5 µM [activator, single point]
CC(C1CC2CCC1C2)n1c(-c2cccs2)n[nH]c1=S (configuration not stated) 28.2 µM [activator, single point]
Cc1ccc(C(=O)N2CCN(c3ccc(NC(=O)COc4ccccc4C)cc3)CC2)cc1 25.1 µM [activator, single point]
O=C(NC(=S)NNC(=O)c1cc2ccccc2cc1O)c1ccco1 3.16 µM [activator, single point]
O=C(c1ccc(CSc2nc3ccncc3[nH]2)cc1)N1CCN(c2cccc(Cl)c2)CC1 31.6 µM [activator, single point]
COc1ccc(NC(=O)C(=O)NCC2CCCN2S(=O)(=O)c2cc(C)ccc2C)cc1 (configuration not stated) 15.8 µM [activator, partial curve]
Cc1cc(C(=O)NCc2nc(-c3ccccc3)no2)ccc1[N+](=O)[O-] 35.5 µM [activator, partial curve]
COc1cc(-c2cc(OC)c3c(C)oc(C)c3c(=O)c2)ccc1OC(=O)c1cccc(C)c1 20 µM [activator, single point]
CC(CNC(=O)COc1ccccc1)OC(=O)Nc1ccc(Cl)c(Cl)c1 (configuration not stated) 22.4 µM [activator, single point]
CCOc1ccc(C(C)=O)cc1CN1C(=O)NC2(CCCCCCC2)C1=O 3.55 µM [activator, partial curve]
CC1CCc2c(sc3ncnc(N4CCOCC4)c23)C1 (configuration not stated) 31.6 µM [activator, single point]
c1ccc(-c2noc(CSc3nnnn3-c3ccccc3)n2)cc1 35.5 µM [activator, single point]
Cc1ccc(C(=O)Nc2ccccc2Oc2ccccc2)o1 11.2 µM [activator, partial curve]
O=C(NCCCCc1ccccc1)C1CC(c2cccc([N+](=O)[O-])c2)=NO1 (configuration not stated) 35.5 µM [activator, single point]
Cc1cc(C)nc(N(C#N)Cc2cccc(Cl)c2)n1 11.2 µM [activator, partial curve]
CCOc1ccc(NC(=S)NC(=O)C2CCCC2)cc1 12.6 µM [activator, partial curve]
Cn1c(-c2ccc(Cl)cc2)ccc(C#N)c1=O 11.2 µM [activator, partial curve]
N=C1/C(=C\c2ccc(SCc3ccccc3)o2)C(=O)N=C2SC=NN12 3.98 µM [activator, partial curve]
CC(=O)Oc1c(S(=O)(=O)c2ccccc2)c(C)nn1C(C)(C)C 11.2 µM [activator, partial curve, poor fit]
O=c1oc(-c2ccccc2Br)nc2ccccc12 11.2 µM [activator, single point]
Cc1cccc(N(C)C(=O)CCS(=O)(=O)c2ccc3c(c2)n(C)c(=O)c(=O)n3C)c1 7.08 µM [activator, partial curve]
CCOC(=O)c1c(C)[nH]c(C)c1S(=O)(=O)N1CCN(c2cc(Cl)ccc2C)CC1 31.6 µM [activator, single point]
O=[N+]([O-])c1ccccc1/C=N/n1c(COc2ccccc2)n[nH]c1=S 35.5 µM [activator, partial curve]
Cc1nnc(NC(=O)c2nc(SC(C)C)ncc2Cl)s1 20 µM [activator, single point]
CCN(C)c1ccc(/C=N\n2nnnc2N)cc1 12.6 µM [activator, partial curve]

Potency, active:
Cc1ccc(OCC(=O)Nc2ccc(Cl)cc2)c([N+](=O)[O-])n1 12.6 µM
COCCN1Cc2cccc(C(=O)Nc3ccc(Cl)cc3Cl)c2C1=O 15.8 µM
Clc1ccc(-c2n[nH]c3c2CCC3)cc1Cl 20 µM
CCSC(=O)N1c2ccc(OC)cc2C=CC1C#N (configuration not stated) 22.4 µM
CC(O/N=C(\N)c1ccccc1)C(=O)Nc1cccc(C(F)(F)F)c1 (configuration not stated) 12.6 µM
